The values that follow come from PubChem BioAssay (NCI).

The subject of this test is NCI-H322M lung. The experiment in a line: DTP human tumour cell line panel, 48 h.

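How tested: cells in 96-well plates exposed to compound for 48 hours at five concentrations. GI50: concentration for 50% inhibition of growth. At the TGI there is no net growth.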

Broadly, the TGI is the concentration giving total growth inhibition. The low end stands for greater sensitivity of the cells, the high end for lower sensitivity of the cells. The compound `O=c1c2cc(Br)ccc2[nH]c(=S)n1-c1ccccc1` registered a TGI greater than 100 µM.
`O=C(O)/C(=C/c1ccccc1[N+](=O)[O-])c1cccs1` registered a TGI greater than 100 µM.
Same read-out and setting: then `C=CCN1C(=O)/C(=C/c2ccccc2)N=C1SC1OC(COC(C)=O)C(OC(C)=O)C(OC(C)=O)C1OC(C)=O` (configuration not stated), with 53 µM; and `Cc1ccc(C)c(NC(=O)/C(=N\N)C(c2cnc3ccc([N+](=O)[O-])cc3n2)[N+](=O)[O-])c1` (configuration not stated), with greater than 100 µM.
With `CC1=C(C(=O)Nc2cccc(C(F)(F)F)c2)C(c2ccccc2F)C(C(=O)Nc2cccc(C(F)(F)F)c2)=C(C)N1`, the TGI amounted to 25 µM.
Turning to `CC(=O)N1N=C(c2ccc3ccccc3c2O)CC1c1ccc(Cl)cc1Cl` (configuration not stated), the TGI was greater than 100 µM.
Same read-out and setting: then `COc1ccc2[nH]c3c(C)c4ccnc(NCCCN(C)CCCN)c4c(C)c3c2c1`, with 0.974 µM.
On the same count and under the same terms, then `O=C(NCCSSCCNC(=O)/C(Cc1ccc(O)c(Br)c1)=N/O)/C(Cc1ccc(O)c(Br)c1)=N/O`, with greater than 28.1 µM; and `c1ccc(CNCCCNCCCCNCCCNCc2ccccc2)cc1`, with 31.7 µM.
One may read the GI50 as the concentration that inhibits growth by half. On to `Cc1ccn2c(-c3csc(Nc4cccc(O)c4)n3)c(C)nc2c1`, for which the GI50 was 0.526 µM and the TGI was determined as 20.9 µM.
`C=CC(Br)(CBr)CCC(Br)C(C)(C)Br` (configuration not stated) came in with a TGI of 26.9 µM.
As for `O=C(N/N=C/c1ccncc1)c1ccc(C(F)(F)F)nc1Nc1cccc(C(F)(F)F)c1`, the GI50 was 1.7 µM and the TGI was 7.8 µM.
For the compound `O=C(OCC(Cl)(Cl)Cl)N1CC[C@@H](C2CCCCC2)C1`, the TGI is greater than 100 µM.
On the same count and under the same terms, then `O=C(Nc1sccc1S(=O)(=O)c1ccc(Cl)cc1)c1ccc(Cl)cc1Cl`, with greater than 100 µM.
Still for that read-out and setting: then `c1csc(-c2ccc(-c3ccsc3)s2)c1`, with greater than 100 µM; and `COC(=N)c1ncn(Cc2ccccc2)c1N`, with greater than 100 µM; and `O=C(O)CC1C(=O)OC2C3COC(=O)c4cc(O)c(O)c(O)c4-c4c(cc(O)c(O)c4O)C(=O)OC2C(OC(=O)c2cc(O)c(O)c4c2C1C(O)C(=O)O4)C(OC(=O)c1cc(O)c(O)c(O)c1)O3` (configuration not stated), with greater than 100 µM.
On the same count and under the same terms, then `O=C1NC(=O)/C(=C/c2ccc(S(=O)(=O)N/N=C/c3ccccc3)cc2)N1`, with greater than 100 µM; and `Cc1ccc(S(=O)(=O)Nc2cccc(C)c2C)cc1`, with greater than 100 µM.
Regarding `COC(=O)c1ccc(-n2c(C)nc(=O)c(-c3ccccc3)c2C)cc1`, the TGI is greater than 100 µM.
On the same count and under the same terms, then `Clc1cc2nnn(C3CCCCO3)c2cc1Cl` (configuration not stated), with greater than 100 µM.
For `O=S1CCN(Cc2ccc(-c3ccc4ncnc(Nc5ccc(OCc6ccccc6)c(F)c5)c4c3)o2)CC1`, the GI50 was 0.983 µM and the TGI is greater than 25 µM.
Consider `N=C1/C(=C/c2ccccc2)C(=O)N=C2SC=NN12`, for which the total growth inhibition concentration (TGI) is greater than 100 µM.
Turning to `CS(=O)/C(C#N)=C\C=C\c1cccc(Cl)c1` (configuration not stated), the GI50 was 2.44 µM and the TGI came to 13.6 µM.
Take `Cc1ccc2c(n1)C(=O)C(Cl)=C(Nc1ccc(N3CCN(C)CC3)cc1)C2=O`: the GI50 was 16.4 µM and the TGI was found to be 30 µM.
Take `CCOC(=O)c1c(SC)nc(-c2ccc(Cl)cc2)sc1=N`: the TGI is greater than 100 µM.
In the case of `CC(C)(C)C1CCP(=O)(c2ccccc2)CC1` (configuration not stated), the TGI was greater than 100 µM.
In turn, `C=CCC1(O)C(=O)OC2C(O)COC21O` (configuration not stated) registered a TGI greater than 100 µM.
Still for that read-out and setting: then `Cc1ccc2nc3sc(=O)sc3nc2c1`, with 28.3 µM.
The compound `CCOC(=O)c1ncn2c1[nH]c(=O)c1ccccc12` had a TGI greater than 100 µM.
Still for that read-out and setting: then `CSC1=N/C(=C\c2ccccc2)C(=O)N1CN1CCOCC1`, with greater than 100 µM; and `COc1ccc(/C=C/c2ccnc3ccccc23)cc1`, with 27.3 µM; and `Cc1ccc(SC2C(C)(C)N(C(C)C)P2(=O)N(C(C)C)C(C)C)cc1` (configuration not stated), with greater than 100 µM.
In the case of `N#CC12CC=C(c3ccccc3)N=C1NC(c1ccccc1)=CC2` (configuration not stated), the TGI is greater than 100 µM.
`C[N+](C)(C)CC(=O)N/N=C/c1oc(-c2cccc([N+](=O)[O-])c2)c(-c2cccc([N+](=O)[O-])c2)c1[N+](=O)[O-]` came in with a TGI greater than 100 µM.
On the same count and under the same terms, then `CC(=O)OCC1=C2C(OC(=O)C(C)C)CC3(COC(C)=O)OC3/C=C\C3(C)OC3C2OC1=O` (configuration not stated), with greater than 100 µM.
In turn, `COc1ccc2c(c1)CC[C@@H]1C2CC[C@]2(C)C(=O)N(CCN3CCCCC3)C(=O)CC12` (some centres not stated) yielded a concentration for total growth inhibition (TGI) greater than 100 µM.
On the same count and under the same terms, then `COC(=O)CSc1n[nH]c(-c2ccccc2)n1`, with greater than 100 µM.
In turn, `CC(C)(C)C1CCC(CI)(N=[N+]=[N-])CC1` (configuration not stated) gave a TGI greater than 100 µM.
`CCOC(=O)c1c(C(F)(F)F)n([O-])c2ccc(Cl)cc2[n+]1=O`: the GI50 was 4.53 µM and the TGI worked out at 19.4 µM.
For `CCCCCCCCn1ccc2cc(NC(=O)Cn3cc(CN4CCC(C)CC4)nn3)ccc21`, in that order: 1.63 µM and 3.05 µM.
For `COc1cc2c(cc1OCc1ccccc1)N=C[C@@H]1C[C@@H](F)CN1C2=O`, in that order: 2.04 µM and 4.6 µM.
In turn, `CN(C(=O)C12C3C4C1C1C2C3C41C(=O)N(C)C(C)(C)C)C(C)(C)C` (configuration not stated) yielded a TGI greater than 50 µM.
On to `c1cc2ccc3cc2cc1CNCCOCCNCc1ccc2ccc(cc2c1)CNCCOCCNC3`, for which the GI50 was greater than 100 µM and the TGI was greater than 100 µM.
As to `C/C(=C\CCc1ccsc1)CC/C=C(\C)CCCN1CCN(CCO)CC1`, the GI50 is 5.95 µM and the TGI is 20.5 µM.
The compound `COc1ccc(C(=O)/C=C/c2ccc(OCC#N)cc2)cc1OC` gave a TGI of 41 µM.
On to `O=C(O)CN(CC(=O)O)c1ccccc1`, for which the TGI was greater than 100 µM.
Consider `C[C@@H](Oc1cc(-c2cnn(C3CC4(CNC4)C3)c2)cnc1N)c1c(Cl)ccc(F)c1Cl`, for which the GI50 is 10.1 µM and the TGI amounted to 23.2 µM.
For `O=[N+]([O-])c1ccc(N/N=C/c2ccccc2O)nc1`, in that order: 1.96 µM and greater than 100 µM.
For the compound `CC(=O)OCC1OC(N2C(=O)CC(N)=Nc3ccccc32)C(OC(C)=O)C(OC(C)=O)C1OC(C)=O` (configuration not stated), the TGI was greater than 100 µM.
Take `N#Cc1c(N)nc2c(N=Nc3ccccc3)c(N)nn2c1Nc1ccccc1`: the TGI came to 22.2 µM.
On the same count and under the same terms, then `O=C(O)c1cccc(S(=O)(=O)NN2C(=O)CSC2c2ccccc2Cl)c1` (configuration not stated), with greater than 100 µM.
Take `C=C1C(=O)O[C@H]2[C@H]1CC/C(COC(=O)c1cccc3ccccc13)=C\CC[C@@]1(C)O[C@@H]21`: the GI50 is 2.15 µM and the TGI is 4.98 µM.
Consider `CC(C)CNC(=O)c1c(NC(=O)c2ccccc2)sc2[nH]c(=O)n(-c3ccccc3)c(=O)c12`, for which the TGI was greater than 100 µM.
For the compound `COC(=O)c1c2c(c(C)[n+]([O-])c1C)C(=O)C=C(NCc1ccc(Br)cc1)C2=O`, the GI50 is 0.546 µM and the TGI was 1.85 µM.
In the case of `O=CN1CCN(C(=O)c2ccc(Cl)cc2)C1=S`, the TGI turned out to be 29.3 µM.
On the same count and under the same terms, then `O=C(/C=C/c1cc(F)ccc1F)OCCc1ccccc1`, with greater than 100 µM.
Regarding `Cc1cc(N2CCN(C)CC2)nc(N(CCNc2ccnc3cc(Cl)ccc23)Cc2ccco2)n1`, the GI50 is 2.8 µM and the concentration for total growth inhibition (TGI) was determined as 11.2 µM.
In turn, `COc1ccc(N2C(=O)C(C#N)=C(SC)C(C#N)C2=O)cc1` (configuration not stated) returned a TGI greater than 100 µM.
For `CN(CCNC(=O)c1cn(C)c2c1ccc1cc(Cl)ccc12)CCNC(=O)c1cn(C)c2c1ccc1cc(Cl)ccc12`, the TGI was 3.47 µM.
With `c1ccc2c(c1)ncn2CCn1ccnc1`, the TGI was greater than 100 µM.
Same read-out and setting: then `CC[C@@]1(OC(=O)C(N)CCC(=O)O)C(=O)OCc2c1cc1n(c2=O)Cc2cc3ccccc3nc2-1` (some centres not stated), with 6.56 µM.
Consider `Nc1ncnc2c1nc(N)n2C1OC(CO)C(O)C1O` (configuration not stated), for which the GI50 was 0.23 µM and the TGI worked out at 1.02 µM.
`COC[C@@H]1Cc2cc(OC)c3c(c2[C@H](c2ccc(OC)c(OC)c2)[C@H]1COC)OCO3` had a TGI greater than 100 µM.
As to `CC(=O)Nc1c(I)c(C(=O)O)c(I)c(N(C)C(C)=O)c1I`, the GI50 is greater than 100 µM and the TGI was greater than 100 µM.
`COC(=O)NN/C=C(\C=Nc1ccccc1)[N+](=O)[O-]` registered a TGI greater than 100 µM.
`CC(C)(C)c1cc(Oc2ccc(C#N)c(C#N)c2)cc(C(C)(C)C)c1` had a TGI greater than 100 µM.
Consider `[CH3][Sn]([CH3])([CH3])[O]C(=O)C(O)c1ccccc1` (configuration not stated), for which the GI50 is 8.7 µM and the TGI was greater than 89.7 µM.
As for `O=C1CSc2sc(=S)sc2S1`, the TGI was greater than 100 µM.
On the same count and under the same terms, then `Cc1ccc(O)c(-c2cc(-c3ccccc3)nc(/N=C\c3ccccc3)n2)c1`, with greater than 100 µM; and `COC(=O)[C@H]1CC(=O)C=C2CCCC21` (some centres not stated), with greater than 100 µM.
As for `Cc1ccc(-c2c3c(N)nc(-c4ccncc4)nc3nc3c2c(C)nn3-c2ccccc2)cc1`, the GI50 was greater than 37.5 µM and the TGI was greater than 37.5 µM.
For `COc1ccccc1NC(=O)CC(=O)n1nc(-c2ccccc2)c(N=Nc2ccccc2[N+](=O)[O-])c1-c1ccccc1`, the TGI is greater than 100 µM.
Still for that read-out and setting: then `COc1cc(CCC(=O)O)c2cc3ccccc3cc2c1O`, with greater than 100 µM; and `CCOC(=O)C/C(N)=C(\C#N)C(=O)OCC`, with greater than 100 µM; and `O=C1NC2(NC(=O)C1=O)Nc1ccccc1S2`, with greater than 100 µM.
On the same count and under the same terms, then `Nc1nc2c(c(=O)[nH]1)N=C(COP(=O)(O)OP(=O)(O)O)CN2`, with greater than 100 µM.
With `CCCCCCCCCCCCNC(=O)[C@H]1CSC(c2cc(Br)cs2)N1` (some centres not stated), the GI50 was 5.43 µM and the TGI is 11.4 µM.
As for `CCOc1ccc(/C=N\N2C(=O)c3ccccc3C2=O)cc1`, the TGI was greater than 100 µM.
For the compound `Cc1ccc(N(C)S(=O)(=O)c2ccccc2)cc1`, the TGI is greater than 100 µM.
With `CCc1ccc(Oc2nccc(-c3c(-c4ccc(F)cc4)ncn3C3CCNCC3)n2)cc1`, the GI50 is 12.8 µM and the concentration for total growth inhibition (TGI) is 22.7 µM.
As to `CN=c1ss/c(=N\C(=S)N(C)C)n1C1CCCCC1`, the TGI was greater than 31.6 µM.
Turning to `COc1ccc(-c2nnc(Nc3nc(O)c(C4=c5cc(OC(F)(F)F)ccc5=NC4=O)s3)o2)cc1`, the GI50 is 11.1 µM and the TGI was determined as 40.9 µM.
In the same order, the values of `Cc1cc(C(=O)N2CCN(C)CC2)c2c(=O)n(-c3ccccc3)c(=O)n(CC(O)CN3CCN(c4ncccn4)CC3)c2n1` (configuration not stated) are greater than 100 µM and greater than 100 µM.
For `O=c1[nH]cc(CO)c(=O)[nH]1`, in that order: greater than 100 µM and greater than 100 µM.
Take `CC1C2CC(CC2O)C1(C)C` (configuration not stated): the TGI was greater than 100 µM.
`O=C1C=Cc2c1csc2Br` gave a total growth inhibition concentration (TGI) greater than 100 µM.
Compound `Cc1cc(CN(Cc2ccccc2)Cc2nc3ccccc3[nH]2)c(O)c(CN(Cc2nc3ccccc3[nH]2)Cc2nc3ccccc3[nH]2)c1` came in with a TGI greater than 100 µM.
